Data taken from PubChem BioAssay AID588855 (National Center for Advancing Translational Sciences (NCATS), 2011).
Hit rate of the full screen: of about 410,000 compounds, about 5,000 (1.2%) were called active. Inconclusive means that the source gave no clear call. Such entries were picked first, then a sample of the others. Calls follow the shape of the dose curve; as a rule, active = well fitted inhibition curve with a large enough effect; inconclusive = small, poorly fitted or top-dose-only effect; inactive = no such curve, though single readings can be large or run the other way. Potencies of inconclusive entries are doubtful fits and often do not repeat.
Potency is read from the fitted curve at half-maximal effect; tags tell the direction and shape of the fitted curve.

Assay: qHTS for Inhibitors of TGF-b; also: nearly all actives have a fitted effect of over 65% in size
Conditions: HepG2 CAGA-GFP TGF-b/SMAD3 reporter, GFP fluorescence, 18 h, TGF-beta stimulated, 500 pg/mL final; series mostly up to 46.1 µM
Outline: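 TGF-beta reporter screen: HEPG2 CAGA-GFP, 1% FBS, 500 pg/mL TGF-beta final, 18 h; per-cell GFP summed per well; curves fitted and categorized by class.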
With `CC(C)(C)CC(C)(C)c1ccc(O)c(Cc2ccc(Cl)cc2Cl)c1` the Potency was inconclusive: 17.8 µM [inhibitor, partial curve]. In the case of `CCOc1ccccc1NC(=O)c1ccc2c(c1)CCN2S(C)(=O)=O`, the Potency is reported as “inactive”. In the case of `Cc1ccc(F)c([C@H]2C3C=CCC(c4ccccc4)C3C(=O)N2Cc2ccccc2)c1` (some centres not stated), the Potency is reported as active: 17.8 µM. With `CSCCC(NC(=O)c1ccccc1Cl)C(=O)N1CCN(C(c2ccccc2)c2ccccc2)CC1` (configuration not stated) the Potency was “inactive”. With `CCn1cc2nc(SCC(=O)Nc3cc(OC)ccc3OC)n(Cc3ccc(Cl)cc3)c(=O)c2n1` the Potency was inconclusive: 22.4 µM [inhibitor, single point]. In the case of `O=C(C[C@H]1C/C=C\C[C@H](NC(=O)OCC2c3ccccc3-c3ccccc32)C(=O)O[C@H](c2ccccc2)CNC1=O)N[C@H](CO)Cc1ccccc1`, the Potency is reported as active: 15.8 µM. In the case of `CCN(CC)c1ccc(/C=C/c2ccc3ccc(OC)cc3[n+]2CC)cc1`, the Potency is reported as active: 6.31 µM. In the case of `Cc1cccc(NC(=O)CCc2nnc3ccc(NCc4ccco4)nn23)n1`, the Potency is reported as “inactive”. With `O=C(CSCc1cccc(Br)c1)N1CCOCC1` the Potency was inconclusive: 35.5 µM [inhibitor, single point]. For `CCc1ccc(Cn2nnc3c(=O)[nH]c(C4CCCN(C(=O)c5cccc(Cl)c5)C4)nc32)cc1` (configuration not stated), the Potency was inconclusive: 17.8 µM [inhibitor, single point]. With `CCC(C)c1ccc(O)c(NC(=S)NC(=O)c2cccnc2)c1` (configuration not stated) the Potency was inconclusive: 35.5 µM [inhibitor, single point]. With `CCN(c1ccccc1)S(=O)(=O)c1cc(C(=O)NCC(c2ccc(OC)cc2)N(C)C)ccc1C` (configuration not stated) the Potency was inconclusive: 35.5 µM [inhibitor, single point]. With `Cc1ccc(C)c(NC(=O)C2CC(=O)N(C(C)C)C2)c1` (configuration not stated) the Potency was inconclusive: 0.794 µM [inhibitor, full curve]. In the case of `C/C=C/COC(=O)c1[nH]c2c(c1C)C(=O)CC(c1ccco1)C2` (configuration not stated), the Potency is reported as inconclusive: 5.62 µM [inhibitor, full curve, poor fit]. In the case of `N#CCCN(C(=O)COC(=O)c1ccc(CNS(=O)(=O)c2ccc(F)c(Cl)c2)cc1)c1ccc(F)cc1`, the Potency is reported as inconclusive: 35.5 µM [inhibitor, single point]. In the case of `COC(=O)Cn1cnc2c(nnn2-c2ccc(F)cc2)c1=O`, the Potency is reported as “inactive”. With `O=S(=O)(NCCOc1ccccc1F)c1cccc(Br)c1` the Potency was “inactive”. With `Cc1ccc(-n2cnc3cc(C(=O)NC4CCCCCC4)ccc32)c(C)c1` the Potency was inconclusive: 17.8 µM [inhibitor, single point]. In the case of `Cc1ccc(C)c(NS(=O)(=O)c2cc(C(=O)Nc3ccccc3-c3ccccc3)ccc2C)c1`, the Potency is reported as inconclusive: 35.5 µM [inhibitor, single point]. In the case of `CCN(CC)S(=O)(=O)c1ccc(N2CC(C(=O)NCCc3c[nH]c4ccccc34)CC2=O)cc1` (configuration not stated), the Potency is reported as inconclusive: 20 µM [inhibitor, single point]. For `N#Cc1c(N)nc2c3c(sc(=N)c2c1N)NC(=O)CC3c1ccccc1Cl` (configuration not stated), the Potency was inconclusive: 35.5 µM [inhibitor, single point]. In the case of `CC(C)c1c(C(=O)N/N=C/c2cccc(OCc3ccccc3)c2)nnn1-c1nonc1N`, the Potency is reported as inconclusive: 25.1 µM [inhibitor, single point]. With `O=C1CC[C@H](OCc2ccccc2)CCN1[C@H](CSc1ccccc1)Cc1ccccc1` the Potency was inconclusive: 15.8 µM [inhibitor, single point]. In the case of `COc1ccc(Nc2nc(C(C)(C)C)nc3c2nnn3Cc2ccccc2Cl)cc1OC`, the Potency is reported as “inactive”. For `O=C(Nc1nccs1)c1ccc(S(=O)(=O)NCC2CCCCC2)cc1`, the Potency was inconclusive: 7.08 µM [inhibitor, partial curve]. With `CC(=O)C(=Cc1cccc(C#N)c1)C(=O)c1ccccc1` the Potency was inconclusive: 35.5 µM [inhibitor, single point]. In the case of `CCOc1ncccc1C(=O)OCC(=O)N(CC)c1ccccc1`, the Potency is reported as inconclusive: 35.5 µM [inhibitor, single point]. With `CCc1ccccc1NC(=O)c1nn(-c2ccc(C)cc2)c(=O)c2c1c1ccccc1n2C` the Potency was “inactive”. In the case of `O=C(N/N=C1\SCC(=O)N1CCc1ccccc1)c1cccs1`, the Potency is reported as “inactive”. In the case of `COc1cccc(CNC(=O)C2CCN(S(=O)(=O)c3ccc(Br)s3)CC2)c1`, the Potency is reported as “inactive”. With `CCS(=O)(=O)n1nc(-c2ccco2)nc1NCc1ccc(C(C)C)cc1` the Potency was inconclusive: 35.5 µM [inhibitor, single point]. In the case of `COc1cccc(C(=O)NCc2ccco2)c1OC`, the Potency is reported as “inactive”. With `CN(C)c1cccc(CNC(=O)c2csc([C@@H]3O[C@H](CO)[C@@H](O)[C@H]3O)n2)c1` the Potency was “inactive”. With `CCN(CC)c1ccc(NS(=O)(=O)c2cn(C)c(=O)n(C)c2=O)c(C)c1` the Potency was “inactive”. With `Cc1cccc2nc(CSc3nc4ccccc4o3)cn12` the Potency was “inactive”. In the case of `CCc1ccc(NC(=S)N(Cc2cccnc2)Cc2ccco2)cc1`, the Potency is reported as “inactive”. With `Cc1ccc(C(=O)c2cn(Cc3cc(C)ccc3C)c3nc(C)ccc3c2=O)cc1` the Potency was inconclusive: 35.5 µM [inhibitor, single point]. In the case of `Cc1ccc(-c2noc(CN(C(=O)c3cccc(Br)c3)C(C)C)n2)cc1`, the Potency is reported as inconclusive: 35.5 µM [inhibitor, single point]. For `CCN1C(=O)[C@H]2[C@@H](c3ccc(C(F)(F)F)cc3)N[C@]3(CCCN(Cc4ccco4)C3=O)[C@H]2C1=O`, the Potency was “inactive”. In the case of `CC1CCCN(C(=O)c2ccc(COc3ccccc3Br)cc2)C1` (configuration not stated), the Potency is reported as inconclusive: 35.5 µM [inhibitor, single point]. In the case of `CCCNc1ccc(S(=O)(=O)N(C(C)C)C(C)C)cn1`, the Potency is reported as “inactive”. For `CCOc1ccc2[nH]cc(C(=O)NCc3ccccc3)c(=O)c2c1`, the Potency was inconclusive: 22.4 µM [inhibitor, single point]. In the case of `O=C1COc2ccc(C(=O)CSc3nnc(Cc4cccs4)n3-c3ccc(Cl)cc3)cc2N1`, the Potency is reported as inconclusive: 8.91 µM [inhibitor, partial curve, poor fit]. In the case of `COc1ccc(C(=O)/C(=C\c2ccco2)N2C=CC=CC2=C(C#N)C#N)cc1`, the Potency is reported as active: 3.55 µM. With `CCN(CC)c1ccc(/C=N/NC(=S)NC)c(O)c1` the Potency was inconclusive: 0.355 µM [inhibitor, full curve, poor fit]. With `COc1ccc(CCCNC(=O)C2Cc3c(-c4cccc(C(C)=O)c4)ccnc3O2)cc1` (configuration not stated) the Potency was inconclusive: 17.8 µM [inhibitor, partial curve, poor fit]. With `COc1cccc(C2C(C(=O)c3cccs3)=C(O)C(=O)N2CCN2CCOCC2)c1OC` (configuration not stated) the Potency was “inactive”. For `CCOC(=O)C1CCCN(C(=O)C2CCN(Cc3nc(-c4ccc(Cl)cc4)oc3C)CC2)C1` (configuration not stated), the Potency was inconclusive: 8.91 µM [inhibitor, partial curve, poor fit]. In the case of `O=C(COc1ccccc1-c1ccccc1)N/N=C/c1ccncc1`, the Potency is reported as “inactive”. In the case of `CCN(CC(=O)NCc1ccc(F)cc1)C(=O)c1ccc(Cl)cc1`, the Potency is reported as “inactive”. For `NC(=O)CSc1nc2cc3c(cc2c(=O)n1CCCCCC(=O)NCc1ccc2c(c1)OCO2)OCO3`, the Potency was “inactive”. In the case of `O=S1(=O)N=C(N(Cc2cccs2)c2ccc(O)cc2)c2ccccc21`, the Potency is reported as inconclusive: 35.5 µM [inhibitor, single point]. With `CC1CCN(c2nn3c(=O)c(C(=O)NCCc4ccccc4)cnc3s2)CC1` the Potency was inconclusive: 0.0891 µM [inhibitor, full curve, poor fit]. For `CC1Cc2cc(-c3csc(NC(=O)Cc4cccs4)n3)ccc2N1S(C)(=O)=O` (configuration not stated), the Potency was inconclusive: 2.51 µM [inhibitor, partial curve, poor fit]. With `Cc1ccc(S(=O)(=O)N(C)CC(O)Cn2c3ccccc3c3ccccc32)cc1` (configuration not stated) the Potency was inconclusive: 22.4 µM [inhibitor, partial curve, poor fit]. With `O=C(CN1C(=O)COc2ccc(S(=O)(=O)N3CCCCCC3)cc21)Nc1cccc(Cl)c1` the Potency was inconclusive: 17.8 µM [inhibitor, single point]. In the case of `Cc1ccc(C(C)NC(=S)NCc2ccc(F)cc2)cc1C` (configuration not stated), the Potency is reported as inconclusive: 17.8 µM [inhibitor, single point]. In the case of `COc1cc(C2c3cc4c(cc3OC(Nc3ccc(C(=O)O)cc3)C2C)OCO4)cc(OC)c1OC` (configuration not stated), the Potency is reported as inconclusive: 3.98 µM [inhibitor, partial curve, poor fit]. In the case of `O=C(NCCC1CCCCN1S(=O)(=O)c1ccccc1)C(=O)Nc1ccc(F)cc1F` (configuration not stated), the Potency is reported as “inactive”. In the case of `Cc1c(C(=O)N2CCCC2)oc2c1-c1nn(CC(=O)NCc3ccccc3Br)cc1CC2`, the Potency is reported as inconclusive: 35.5 µM [inhibitor, single point]. With `COc1ccccc1OCCNC(=O)c1cccs1` the Potency was inconclusive: 35.5 µM [inhibitor, single point]. With `Cc1nc(N2CCCCCC2)c2ccccc2n1` the Potency was inconclusive: 35.5 µM [inhibitor, single point]. In the case of `COc1ccc(C)cc1NC(=O)CCc1c(C)nn(-c2ccc(N3CCCCC3)nn2)c1C`, the Potency is reported as inconclusive: 3.55 µM [inhibitor, full curve]. With `Cc1csc(NC(=O)CCn2c(=O)sc3ccccc32)n1` the Potency was “inactive”. In the case of `COc1ccc(NC(=O)CCS(=O)(=O)c2nc(-c3ccc4c(c3)OCO4)cc(C(F)(F)F)n2)cc1`, the Potency is reported as inconclusive: 8.91 µM [inhibitor, partial curve, poor fit]. In the case of `CCC(C)Sc1cc(-c2nc3ccccn3c2NC2CCCCC2)ccc1OC` (configuration not stated), the Potency is reported as inconclusive: 35.5 µM [inhibitor, single point]. In the case of `COc1ccc(CN=C2NC(=O)CC(C(=O)Nc3ccc(F)cc3)S2)cc1` (configuration not stated), the Potency is reported as inconclusive: 35.5 µM [inhibitor, partial curve, poor fit].
